Results taken from PMC13083723 (Patterns, 2026).
The campaign covered roughly 5,400 compounds. About 190 (3.5%) showed an effect of 50% or more. The list shows a part of the results.

What follows are compounds tested on Vero-E6 (assay: primary screen, phospholipidosis by LipidTOX staining; higher = more effect of the substance). Conditions: 10 µM.
Procedure, shortened: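 Drug-induced phospholipidosis detected with HCS LipidTOX Red reagent in Vero-E6 cells. Compounds tested at 10 μM, with amiodarone (10 μM) as positive control and DMSO (0.1 v/v %) as vehicle.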

| SMILES | result_ITMP [%] |
| --- | --- |
| Cc1ccnc2c1NC(=O)c1cccnc1N2C1CC1 | -1.9 |
| N#Cc1c[nH]c2c(C(=O)N3CCN(CCc4ccc(F)cc4)CC3)cccc12 | 2.35 |
| CC(C)[C@H](CO)Nc1nc(Nc2cccc(Cl)c2)c2ncn(C(C)C)c2n1 | -0.71 |
| Cc1[nH]c(=O)c(C#N)cc1-c1ccncc1 | -1.45 |
| NC(=O)OCCCc1ccccc1 | -6.09 |
| O=C(c1ccc2nccnc2c1)N1CCCCC1 | -1.43 |
| C[C@H]1CC[C@H](n2c3cnccc3c3cnc(Nc4ccc5c(n4)CCN(C(=O)CO)C5)nc32)CC1 | -2.27 |
| CCN(CC)CCOC(=O)C1(c2ccccc2)CCCC1 | 2.32 |
| NC(N)=NCCNS(=O)(=O)c1cccc2cnccc12 | -3.17 |
| COCc1nc2c(=O)n(C)c(=O)n(CC(C)C)c2[nH]1 | -0.95 |
| C[C@H]1CC2C3CCC4=CC(=O)C=C[C@]4(C)[C@@]3(F)[C@@H](O)C[C@]2(C)[C@@]1(O)C(=O)CO (some centres unmarked) | 2.45 |
| CC(C)C(=O)OC[C@H]1O[C@@H](n2ccc(N)nc2=O)[C@](C)(F)[C@@H]1OC(=O)C(C)C | -2.66 |
| C=CCN1CCN(c2nc3ccccc3nc2C#N)CC1 | 0.77 |
| Cc1c(C(N)=O)cc([N+](=O)[O-])cc1[N+](=O)[O-] | -13.1 |
| CC(=O)O[C@]1(C(C)=O)CC[C@H]2[C@@H]3CCC4=CC(=O)CC[C@]4(C)[C@H]3CC[C@@]21C | -3.89 |
| CNC(=O)[C@H]1O[C@@H](n2cnc3c(NCc4cccc(I)c4)ncnc32)[C@H](O)[C@@H]1O | -1.53 |
| NC(C(=O)O)c1ccc(C(=O)O)c(O)c1 (racemic) | 9.69 |
| NC(=O)N1c2ccccc2CC(O)c2ccccc21 (centres unmarked) | -1.17 |
| Cc1cccc(C)c1NC(=O)C1CCCCN1C (centres unmarked) | 1 |
| COc1ccc(C2C(=O)c3ccccc3C2=O)cc1 | -7.25 |
| Cc1nnc(SCC2=C(C(=O)[O-])N3C(=O)[C@@H](NC(=O)Cn4cnnn4)[C@H]3SC2)s1 | -0.51 |
| O=C(c1ccccn1)c1cnn2c(-c3ccncc3)ccnc12 | 0.82 |

| SMILES | result_ITMP [%] |
| --- | --- |
| N#Cc1ccc2[nH]cc(CCCCN3CCN(c4ccc5oc(C(N)=O)cc5c4)CC3)c2c1 | 12.9 |
| CN1C(C(=O)Nc2ccccn2)=C(O)c2sccc2S1(=O)=O | -7.11 |
| COc1cc(/C=C2\CCC/C(=C\c3ccc(O)c(OC)c3)C2=O)ccc1O | -5.15 |
| Cc1cccn2c(=O)c(-c3nn[n-]n3)cnc12 | -2.44 |
| Cc1ncc([N+](=O)[O-])n1CC(O)CCl (centres unmarked) | 12.3 |
| C=CC(=O)c1ccc2ccccc2c1 | -1.21 |
| C=CCOc1ccc(CC(=O)O)cc1Cl | -0.67 |
| N=C(NCc1ccc(Cl)cc1)SCCCc1c[nH]cn1 | 17.5 |
| COC(=O)C1=C(C)NC(C)=C(C(=O)O[C@H]2CCN(Cc3ccccc3)C2)[C@H]1c1cccc([N+](=O)[O-])c1 | 21.2 |
| CNC(=O)N(C)N=O | -2.57 |
| CC(C)(C)c1ccc(CN2CCN(C(c3ccccc3)c3ccc(Cl)cc3)CC2)cc1 (centres unmarked) | 1.77 |
| Cc1cc(N2CCCCC2)nc2ccccc12 | -2.64 |
| C[C@@H](c1ccc2nccn2c1)n1nnc2ncc(-c3cnn(C)c3)nc21 | -1.11 |
| COc1ccc2c(c1)C=C1Cn3c-2c(C2CCCCC2)c2ccc(cc23)C(=O)NS(=O)(=O)N(C)CCOCCN(C)C1=O | -1.79 |
| COc1cc2c(cc1OC)C(=O)C(CC1CCN(Cc3ccccc3)CC1)C2 (centres unmarked) | -1.55 |
| COc1ccc(S(=O)(=O)Nc2nc(-c3cccc([N+](=O)[O-])c3)cs2)cc1OC | -5.47 |
| Cc1cc(-c2nc3cc(F)ccc3s2)ccc1NC(=O)[C@@H](N)CCCCN | 0.55 |
| O=C(CCCN1CCC(O)(c2ccc(Br)cc2)CC1)c1ccc(F)cc1 | 14.8 |
| C[C@@H](Oc1cc(-n2cnc3ccc(CN4CCN(C)CC4)cc32)sc1C(N)=O)c1ccccc1C(F)(F)F | 75.1 |
| CNCC[C@H](Oc1cccc2ccccc12)c1cccs1 | 92.6 |
| COc1cc(OC)c(OC)cc1C=O | -1.77 |
| C[N+]1(C)CCCC(OC(=O)C(O)(c2ccccc2)c2ccccc2)C1 (centres unmarked) | -2.52 |

| SMILES | result_ITMP [%] |
| --- | --- |
| Cc1cccc(C(C)c2cnc[nH]2)c1C (centres unmarked) | 9.89 |
| OCCCNc1ccccc1 | -4.73 |
| CC1(C)CCC[C@]2(C)[C@H]3CC(=O)O[C@]3(C)CC[C@@H]12 | 1.48 |
| CC(=O)c1ccc2c(c1)N(CCCN1CCC(CCO)CC1)c1ccccc1S2 | 50.4 |
| N#Cc1cn([C@@H]2O[C@H](CO)[C@@H](O)[C@H]2O)c2ncnc(N)c12 | 8.12 |
| CC1(COc2ccc3c(c2)ncn3-c2ccc3cccc(N4CCC(N)CC4)c3n2)COC1 | 64.2 |
| O=C(O)CCc1c[nH]c2ccccc12 | -10.1 |
| CC1(C)O[C@H]2CC(=O)OC[C@]23[C@H]2CC[C@@]4(C)[C@H](c5ccoc5)OC(=O)[C@H]5O[C@]54[C@]2(C)C(=O)C[C@@H]13 | -6.19 |
| COc1cc(Cc2cnc(N)nc2N)cc(OC)c1OC | -2.94 |
| NC(=O)[C@H]1CCS[C@@H]2C[C@]3(CCCN3C(=O)Cc3ccc(NC(=O)COc4ccc(Cl)cc4Cl)cc3)C(=O)N12 | -1.66 |
| COc1cc2c(cc1OC)CN(CCc1ccc(NC(=O)c3cc(OC)c(OC)cc3NC(=O)c3cnc4ccccc4c3)cc1)CC2 | -3.35 |
| CCOc1nc2cccc(C(=O)OCc3oc(=O)oc3C)c2n1Cc1ccc(-c2ccccc2-c2noc([O-])n2)cc1 | 5.04 |
| COc1cc(N)c(Cl)cc1C(=O)NC1CN2CCC1CC2 (centres unmarked) | -9.6 |
| CN(C(=O)c1ccc(F)cc1C(F)(F)F)C1CCN(c2nnc(-c3ccnn3C)c3ccccc23)CC1 | -2.91 |
| COc1ccccc1C1(O)CCN(CCCn2c3ccccc3c3ccccc32)CC1 | 52.4 |
| C[C@H]1[C@H](OC(=O)CCC(=O)O)O[C@@H]2O[C@@]3(C)CC[C@H]4[C@H](C)CC[C@@H]1[C@@]24OO3 | 7.77 |
| C[C@H](NC(=O)[C@@H](N)Cc1ccc(O)cc1)C(=O)NCC(=O)N(C)[C@@H](Cc1ccccc1)C(=O)N[C@H](CO)CCS(C)=O (some centres unmarked) | 1.17 |
| CC(=O)C(=O)[O-] | -8.52 |
| CCN(CC)CCOC(=O)C(c1ccccc1)C1CCCCC1 (centres unmarked) | 52 |
| COc1ccc([C@H]2CNC(=O)C2)cc1OC1CCCC1 | -3.42 |
| Clc1ccc(C(c2ccc(Cl)cc2)C(Cl)(Cl)Cl)cc1 | -2.17 |
